Experimental data: paper PMC10194883 (PLOS ONE, 2023)

Target: ACE2 binding to wild type of SARS-CoV-2 RBD (UniProt P0DTC2+Q9BYF1)

Compound: O=C(O)C(=O)O [OA, Oxalic acid]
- inhibitory effect on ACE2 binding to wild type SARS-CoV-2 RBD: no inhibitory effect
